Measured values published in PubChem BioAssay AID720709 (National Center for Advancing Translational Sciences (NCATS), 2013).
The campaign covered roughly 360,000 compounds. About 520 (0.14%) were called active. The shares of active, inactive and inconclusive entries below differ from those in the screen. Calls follow the shape of the dose curve; as a rule, active = well fitted inhibition curve with a large enough effect; inconclusive = small, poorly fitted or top-dose-only effect; inactive = no such curve, though single readings can be large or run the other way. A potency beside an inconclusive call is a rough fit, not a confirmed value.

Biological target: Rap guanine nucleotide exchange factor 3 (Homo sapiens) (UniProt O95398)
UniProt O95398, sequence (O95398 whole entry, looked up): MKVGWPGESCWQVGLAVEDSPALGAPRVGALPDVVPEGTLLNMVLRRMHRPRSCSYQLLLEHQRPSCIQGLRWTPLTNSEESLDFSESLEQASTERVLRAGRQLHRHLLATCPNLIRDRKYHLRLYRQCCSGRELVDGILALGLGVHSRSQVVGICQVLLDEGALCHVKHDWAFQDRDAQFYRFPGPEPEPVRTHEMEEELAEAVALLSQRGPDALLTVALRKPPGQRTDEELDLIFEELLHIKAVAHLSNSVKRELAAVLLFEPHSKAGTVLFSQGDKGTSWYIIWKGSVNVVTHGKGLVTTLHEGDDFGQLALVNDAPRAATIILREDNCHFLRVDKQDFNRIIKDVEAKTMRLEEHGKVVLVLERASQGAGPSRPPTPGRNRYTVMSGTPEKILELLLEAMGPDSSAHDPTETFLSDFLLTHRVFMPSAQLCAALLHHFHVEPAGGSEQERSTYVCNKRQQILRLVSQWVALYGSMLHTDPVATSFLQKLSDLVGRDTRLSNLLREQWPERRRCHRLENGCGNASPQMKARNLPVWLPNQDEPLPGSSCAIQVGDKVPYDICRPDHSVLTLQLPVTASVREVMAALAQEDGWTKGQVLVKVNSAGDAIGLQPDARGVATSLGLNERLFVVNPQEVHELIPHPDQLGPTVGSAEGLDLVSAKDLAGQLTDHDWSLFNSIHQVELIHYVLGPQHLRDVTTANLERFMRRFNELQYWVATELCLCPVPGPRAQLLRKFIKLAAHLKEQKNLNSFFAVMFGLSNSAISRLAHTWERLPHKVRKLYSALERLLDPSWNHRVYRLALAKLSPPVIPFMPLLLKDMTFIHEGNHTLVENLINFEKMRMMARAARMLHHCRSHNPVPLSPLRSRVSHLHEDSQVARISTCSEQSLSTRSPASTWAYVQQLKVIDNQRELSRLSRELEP
Assay: qHTS for Antagonist of cAMP-regulated guanine nucleotide exchange factor 3 (EPAC1): primary screen; also: nearly all actives have a fitted effect of over 50% in size;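 as to activity change, negative = inhibition: plate controls were vehicle for no effect and positive control for full effect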
Conditions: EPAC1 GEF assay, Rap1b-BODIPY-GDP exchange fluorescence; activity change, negative = inhibition: at 115 µM (top of the series)
Potency is read from the fitted curve at half-maximal effect; tags tell the direction and shape of the fitted curve.

Potency, inconclusive:
Cc1ccc(NC(=O)Cn2c(O)c(N=NC(N)=O)c3ccccc32)cc1 79.4 µM [inhibitor, partial curve, poor fit], O=C(O)c1cc(N/N=C/c2ccc(-c3ccc(F)cc3)o2)ccc1Cl 89.1 µM [inhibitor, single point], CCOC(=O)c1sc(NC(=S)NC(=O)CC(C)C)cc1C 89.1 µM [inhibitor, partial curve], Cc1noc(C)c1C(=O)OCC(=O)Nc1cccc(S(N)(=O)=O)c1 89.1 µM [inhibitor, single point], CC(=O)Nc1ccc(S(=O)(=O)Nc2nc3ccccc3nc2-n2ccc(=NC(=O)c3ccc(F)cc3)cc2)cc1 8.91 µM [inhibitor, full curve], Cc1cc(OCC(=O)NCC(c2ccc(F)cc2)N2CCOCC2)ccc1Cl (stereo unspecified) 79.4 µM [inhibitor, single point], O=C(OC1CCOC1=O)c1ccc(-c2nc3ccccc3s2)s1 (stereo unspecified) 100 µM [inhibitor, single point], O=C(Nc1c(F)cccc1F)c1ccc2c(c1)CCN2S(=O)(=O)c1ccccc1 112 µM [inhibitor, partial curve, poor fit], O=C(/C=C/c1ccco1)NC(=S)Nc1cccc([N+](=O)[O-])c1 89.1 µM [inhibitor, partial curve], COc1ccc(C(=O)NC(=S)Nc2ccc(CN3CCOCC3)cc2)cc1Cl 7.08 µM [inhibitor, full curve], Nc1ccc(-c2nc3ccc(N)cc3[nH]2)cc1 100 µM [inhibitor, single point], COc1cccc(/C=C/C(=O)c2ccc(C)c([N+](=O)[O-])c2)c1 89.1 µM [inhibitor, single point], COc1ccccc1-c1noc(CSc2nc(N)cc(=O)[nH]2)n1 7.94 µM [inhibitor, full curve, poor fit], Cc1ccc(S(=O)(=O)/N=C2\C=C(Nc3ccc(O)cc3)C(=O)c3ccccc32)cc1 70.8 µM [inhibitor, partial curve], CCCCN(C(=O)c1cccc(S(=O)(=O)N(CC)c2ccccc2)c1)c1c(N)n(CCCC)c(=O)[nH]c1=O 3.16 µM [inhibitor, full curve, poor fit], Cc1ccc(OCC(=O)N/N=C\c2cccn2C)c([N+](=O)[O-])c1 79.4 µM [inhibitor, single point], CCc1ccc(OCCCCCn2ccnc2)cc1 79.4 µM [inhibitor, single point], O=C(c1ccc(Br)cc1)C(CN1CCOCC1)c1ccccc1 (stereo unspecified) 8.91 µM [inhibitor, full curve], COc1ccc(-c2csc(N3CCC(C(N)=O)CC3)n2)cc1 100 µM [inhibitor, single point], COc1ccc(-c2ccc(SCC(=O)c3ccccc3)nn2)cc1OC 89.1 µM [inhibitor, single point], Nc1ccccc1OCCOCCOc1ccccc1N 89.1 µM [inhibitor, partial curve, poor fit], Cc1cc(N2CCN(C(=O)c3ccco3)CC2)n2nc(C)nc2n1 89.1 µM [inhibitor, single point], CCCCCCCC(=O)N/N=C/c1ccc(Br)cc1 10 µM [inhibitor, full curve, poor fit], CC(=O)Oc1ccc2occ(-c3ccccc3)c2c1 3.16 µM [inhibitor, full curve, poor fit], COCCCNC(=O)c1cccc(NC(=O)c2ccccc2)c1 79.4 µM [inhibitor, single point], CN(C)CCCN(C(=O)c1ccc(C(=O)c2ccccc2)cc1)c1nc2c(F)cccc2s1 35.5 µM [inhibitor, partial curve], O=C(COC(=O)CNC(=O)C12CC3CC(CC(C3)C1)C2)Nc1ccccc1 79.4 µM [inhibitor, partial curve], CC1CCCN(C(=O)c2cccc(S(=O)(=O)Nc3cc(C(F)(F)F)ccc3Cl)c2)C1 (stereo unspecified) 56.2 µM [inhibitor, partial curve], Cc1ccc(Nc2nc(N)c([N+](=O)[O-])c(N3CCOCC3)n2)cc1C 100 µM [inhibitor, partial curve, poor fit], COc1cccc(C(=O)Nc2cccc3c2ccc2cccn23)c1 50.1 µM [inhibitor, partial curve], CNc1ccc(Br)cc(C(=O)/C=C/c2ccc(OC)cc2)c1=O 39.8 µM [inhibitor, partial curve, poor fit], COc1ccccc1NS(=O)(=O)c1cccc(C(=O)NNC(=O)c2ccc(Cl)nc2)c1 79.4 µM [inhibitor, partial curve], COc1ccccc1C(=O)NC(CCSC)C(=O)NCC(c1cccs1)N(C)C (stereo unspecified) 39.8 µM [inhibitor, full curve, poor fit], Nc1[nH]n2c(=O)cc(-c3ccccc3)nc2c1N=Nc1ccc(S(N)(=O)=O)cc1 50.1 µM [inhibitor, partial curve, poor fit], N#C/C(=C\c1ccc(O)c(O)c1)C(=O)c1ccc(O)c(O)c1 8.91 µM [inhibitor, full curve], CN(CC(=O)Nc1ccc(F)cc1)C(=O)c1cccc(S(=O)(=O)N2CCN(c3ccc(F)cc3)CC2)c1 89.1 µM [inhibitor, single point], Cc1c(C(=O)OCC(C)C)[nH]c2c1C(=O)CC(c1ccco1)C2 (stereo unspecified) 70.8 µM [inhibitor, partial curve], NC(=O)c1cccc(-c2coc3c(C(=O)NCc4ccccc4)cccc23)c1 44.7 µM [inhibitor, partial curve], C[C@H](CO)N1C[C@H](C)[C@@H](CN(C)CC2CCCCC2)Oc2c(NC(=O)Cc3ccccc3)cccc2C1=O 15.8 µM [inhibitor, full curve, poor fit], Cc1cc2oc(=O)cc(CN(C)Cc3ccc(OC(F)F)cc3)c2cc1Cl 79.4 µM [inhibitor, single point], COc1cc(NS(=O)(=O)c2cc3[nH]c(=O)c(=O)[nH]c3cc2C)cc(OC)c1OC 79.4 µM [inhibitor, single point], Cc1cc(/C=C2\SC(=S)NC2=O)cc(C)c1O 100 µM [inhibitor, single point]

Potency, inactive:
O=c1cc(-c2ccc(O)cc2)oc2c1ccc1ccccc12, O=[N+]([O-])c1ccc(C2=Nn3c(Cn4nnc5ccccc54)nnc3SC2)cc1, Cc1ccc(NC(=O)CCNC(=O)c2ccc([N+](=O)[O-])cc2)cc1C, CN(C)c1ccc(NC(=O)COC(=O)CNC(=O)c2cccs2)cc1, COc1ccc(CCNC(=O)CCC(=O)N2CCN(S(=O)(=O)c3ccccc3)CC2)cc1OC, Cc1ccc(C(=O)CSc2nnc(-c3ccco3)n2C)cc1, Cn1c(O)c(N=NC(=O)CNC(=O)/C=C/c2ccccc2)c2ccccc21, O=C(CNC(=O)c1ccccc1F)Nc1ccccc1C(F)(F)F, N=C1/C(=C\c2coc3ccccc3c2=O)C(=O)N=C2SC=CN12, O=S(=O)(c1ccccc1)N(Cc1nc(-c2ccccc2)no1)C1CCCCC1, Cc1ccc(S(=O)(=O)N(CC(=O)Nc2ccc(Cl)cc2)C(=O)N2CCN(C)CC2)cc1, COc1ccc(NS(=O)(=O)c2ccc(NC(=O)c3ccc(Br)cc3)cc2)nn1, O=C1CCCCCN1Sc1ccccc1, CCN1CCN(c2ccc(NC(=O)c3ccc(Br)o3)cc2)CC1, CCOc1ccc(CN2CCN(c3ncnc4scc(-c5ccccc5)c34)CC2)cc1, COc1ccc(N2CCN(c3nc(NCCc4ccc(OC)c(OC)c4)nc(OC)n3)CC2)cc1, Cn1c(C(=O)NCc2ccccn2)cc2c(=O)n3ccccc3nc21

Potency, active:
Cc1ccc(C2=NC(=O)/C(=C/c3cc(O)c(O)c(Br)c3)S2)cc1 10 µM, Cc1ccccc1NC1=C/C(=N\S(=O)(=O)c2ccc(C(=O)O)cc2)c2ccccc2C1=O 39.8 µM, O=C(O)c1cc(O)c2c(c1)[C@@H]([C@H]1c3cc(C(=O)O)cc(O)c3C(=O)c3c(O[C@@H]4O[C@H](CO)[C@@H](O)[C@H](O)[C@H]4O)cccc31)c1cccc(O[C@@H]3O[C@H](CO)[C@@H](O)[C@H](O)[C@H]3O)c1C2=O 35.5 µM

Activity change, negative = inhibition, inconclusive:
Nc1nc(=S)[nH]c2c1C1(CCCCC1)Cc1ccccc1-2 -16.9% [inhibitor], CCOC(=O)Nc1ccc(C)cc1C -6.75% [inhibitor], COc1ccc(-c2nnc(SCC(=O)Nc3nc4ccccc4s3)n2C)cc1 0% [inhibitor], CC(CCc1ccccc1)NC(=O)CNC(=O)COc1ccccc1 (stereo unspecified) -30.9% [inhibitor]
